# Experimental data from ChEMBL document CHEMBL4888484, “Replenishing the malaria drug discovery pipeline: Screening and hit evaluation of the MMV Hit Generation Library 1 (HGL1) against asexual blood stage Plasmodium falciparum ,using a nano luciferase reporter read-out” (2022).
# “And” between values parts separate entries of the source, which are not always exact repeats. Equal entries are not always repeated. Screen size: about 150,000 compounds; about 540 (0.36%) showed an effect of 50% or more. The list shows a part of the results.
# System: Plasmodium falciparum
# Experiment: Primary screen in NF54 nanoGlo assay, in single point, at 2uM, 72h; a lower Z score goes with more inhibition
# Assay type: functional, Erythrocyte
# Conditions: timepoint 72 hour
SMILES,% Inhibition,Z score,% Inhibition (2 µM),Z score (2 µM)
Cn1c(N2CCCN(C(=O)COc3ccc(F)cc3)CC2)cc(=O)n(C)c1=O,-6%,0.96,–,–
CN(Cc1ccccc1)S(=O)(=O)N1CC(C)(C)[C@@](C)(O)C1,-17%,2.25,–,–
O=C(Cc1n[nH]c(=O)c2ccccc12)N[C@H]1CCCc2c1[nH]c1c(Cl)cccc21,3%,-0.39,–,–
Brc1cn[nH]c1-c1ccccn1,–,–,-8% and -10%,1 and 1.04
CC(C)N(C)C[C@H](C)NCCc1ccccc1Cl,-1%,0.13,–,–
NC[C@@H](C(=O)N1CCCCCCC1)c1ccccc1,1%,-0.08,–,–
O=C(c1ccncc1)N1CCc2ccccc2C1,-4%,0.47,–,–
CCC(C)C1NC2(CCN(C(=O)NC(C)(C)C)CC2)N(C2CCN(Cc3ccccc3)CC2)C1=O (stereo not drawn),-4%,0.76,–,–
O=C(Cn1cnc2ccc(Cl)cc2c1=O)N1CCCc2ccccc21,-13%,2.14,–,–
CCc1csc(CNC(=O)c2ccc(N(C)Cc3cccs3)nc2)n1,14%,-1.86,–,–
OC1(C(F)(F)c2nc(-c3cnccn3)no2)CCC1,-8%,1.24,–,–
O=C1NCCCn2cc(nn2)CC2(CCN(C(=O)c3cc(F)ccc3Cl)CC2)C(=O)N[C@H]1Cc1ccccc1,-8%,1.53,–,–
CN1CCCN(S(=O)(=O)c2ccc(C(=O)NC3CCC3)cc2)CC1,4%,-0.7,–,–
CCc1cc([C@@H]2CCCN2C(=O)Cc2cccc(Cl)c2)on1,2%,-0.26,–,–
CCc1nc(CN2C[C@]3(C)C[C@H]2CC(C)(C)C3)n[nH]1,-9%,1.75,–,–
OCC[C@H]1CN(C2CCN(c3cccc(Cl)c3)CC2)CCN1CC1CCCCC1,-24%,2.13,–,–
C[C@@H](CS(C)(=O)=O)NCC(C)(C)c1ccccc1Br,2%,-0.4,–,–
CCn1cc(CCN2CCN(C(=O)c3ccccc3)CC2)c2cccnc21,-11%,1.28,–,–
Cn1ccnc(N[C@@H](COc2ccccc2F)c2ccccc2)c1=O,31%,-0.25,–,–
FC(F)(F)C1CN(c2nc(-c3ccccn3)nc3c2CCC3)C1,75%,-13.36,–,–
CC(=O)Nc1ccc2c(c1)CN(C(=O)CC(C)C)[C@H](C(=O)N(C)C)C2,2%,-0.38,–,–

SMILES,% Inhibition,Z score,% Inhibition (2 µM),Z score (2 µM)
COc1ccc(C2C(C(=O)Nc3ccccc3)C(=O)CC(C)(O)C2C(=O)Nc2ccccc2)cc1 (stereo not drawn),-7%,0.94,–,–
Cc1cccc(NC(=O)CN2CCN(C(=O)c3nn(-c4ccccc4Cl)c(C)cc3=O)CC2)c1C,-11%,1.61,–,–
CCOC(C)C(=O)N1CCCC(c2nc3ccccc3n2C(C)C)C1 (stereo not drawn),-8%,0.99,–,–
Nc1c(F)cccc1CN1CCN(C(=O)Cn2cnnn2)CC1,-10%,1.49,–,–
O=C(CCc1c[nH]c2ccccc12)N1CCCC1,-6%,0.77,–,–
CN(Cc1ccon1)C(=O)CN1CCCCCCC1,-8%,1.65,–,–
CCCC1(O)CCN(C(=O)[C@@H]2COC(=O)N2)CC1,-33%,3.9,–,–
O=C(NCC1CCCCC1)c1cc2c(F)cccc2s1,0%,0.04,–,–
Cc1ccc(Oc2ncccc2CNC(=O)c2cc[n+]([O-])cc2)c(F)c1F,3%,-0.42,–,–
CC(C)[C@H](Oc1ccc(F)cc1F)C(=O)NC1CC=CC1,-10%,2.1,–,–
Cc1ccc(C)c(CN(C)S(=O)(=O)NCC(F)(F)F)c1,4%,-0.85,–,–
O=C(NC1CC1c1cccc(Cl)c1)c1ccc[nH]1 (stereo not drawn),9%,-1.57,–,–
Cc1ccc2ccc3cc(C(=O)Nc4cccc(C(F)(F)F)c4)[nH]c3c2n1,2%,-0.32,–,–
CCC(=O)N1CCN(C(=O)CCCCc2ccccc2)[C@H]2CS(=O)(=O)C[C@H]21,-12%,2.41,–,–
Cc1cc(C)nc(O[C@H]2CCCN(C(=O)CCc3ccccc3)C2)n1,5%,-0.69,–,–
COc1ccc(C(=O)N2CCC[C@H](C(=O)N3CCCN(C)CC3)C2)c2ccccc12,-3%,0.53,–,–
CC[C@@H](C(=O)NCCNc1cc(C)ccn1)n1cccn1,-11%,1.01,–,–
CC(C)(C)n1nc2nc(NCCN3CCCCC3)nc(-c3ccc(F)c(Cl)c3)c2c1N,75%,-7.01,–,–
CCC(=O)N1CCc2cc(N3C[C@@H](C(=O)Nc4ccc5c(c4)OCCO5)CC3=O)ccc21,1%,-0.14,–,–
O=C(NC1CC1c1ccccc1F)c1cc[nH]n1 (stereo not drawn),3%,-0.38,–,–
Cc1cc(C)cc(CN2CCN(Cc3ncc[nH]3)[C@@H]3CS(=O)(=O)C[C@@H]32)c1,-5%,1.03,–,–

SMILES,% Inhibition,Z score,% Inhibition (2 µM),Z score (2 µM)
O=C(c1cccnc1)n1nc(NCc2ccccc2Cl)nc1NCc1ccccc1Cl,-3%,0.52,–,–
CCn1cc(-c2cc(C(=O)N3CCC[C@@H]3Cc3cccnc3)c3ccccc3n2)cn1,-5%,0.65,–,–
CCn1nc(C)c(-c2cc(C(=O)N3CCC(C)(c4noc(-c5ccccn5)n4)CC3)no2)c1C,-12%,1.6,–,–
O=c1cccnn1CCNS(=O)(=O)c1ccc2ccccc2c1,3%,-0.57,–,–
Cc1cc(Cl)ccc1-n1cnc(=O)n1CC(=O)N(C)C1CC1,8%,-0.91,–,–
CCC[C@H]1CN(CC(=O)NC2CCCCCC2)C[C@@H]1NC(C)=O,-2%,0.37,–,–
CCC(=O)N1CCC[C@H](C(=O)N2CCCCCCC2)C1,25%,-2.81,–,–
COc1ccsc1C(=O)NCC1(C)CCCCC1O (stereo not drawn),-10%,1.61,–,–
CC(=O)CCC(=O)N1CCC([C@]2(Cc3ccc(F)cc3)NC(=O)N(CC3CC3)C2=O)CC1,-17%,2.63,–,–
c1ccc(CN2C[C@@H]3CC[C@H]2CN(Cc2ccc4c(c2)OCCO4)C3)nc1,-5%,0.66,–,–
N#CCCN(CCC#N)C(=O)C1CCCCC1,-9%,1.74,–,–
CCN(CC)CCCNC(=O)[C@H]1CCCN(c2nc3ccccc3n(Cc3ccccc3)c2=O)C1,37%,-5.39,–,–
CCc1ncc(C(=O)N2CCC[C@H]2COC)cn1,-10%,1.89,–,–
COc1ccc(C)c2sc(N(Cc3cccnc3)C(=O)Cc3cccc4ccccc34)nc12,3%,-0.43,–,–
CCC(C)(C)NC(=O)[C@H](C)Oc1cc(OC)ccc1C(C)=O,-3%,0.46,–,–
COc1ccc(C)cc1N([C@@H](C)C(N)=O)S(C)(=O)=O,-12%,1.76,–,–
Cc1cc(CN2C(=O)N[C@]3(CCc4ccccc4C3)C2=O)on1,-4%,0.74,–,–
CCN1C[C@@H](C(=O)N2CCC(c3nc4ccccc4n3C)CC2)CCC1=O,0%,0.03,–,–
O=C(Cc1cccs1)NCc1ccccn1,5%,-0.84,–,–
CCOC(=O)c1ccc2nc(-c3cccc(OC)c3)cc(OCC(=O)Nc3ccccc3F)c2c1,-2%,0.4,–,–
Cc1ccc(CNc2ccc(C(=O)N(C)[C@H]3CCCN(C)C3)cc2)o1,7%,-0.76,–,–

SMILES,% Inhibition,Z score,% Inhibition (2 µM),Z score (2 µM)
CN1CCC(N(C[C@H]2CCOC2)C(=O)c2cc(F)ccc2Cl)CC1,-10%,1.28,–,–
COc1nc2c(cc1CNC(=O)c1ccc(CO)o1)C(=O)N(C1CCCC1)C2,-16%,2.05,–,–
CC1CCC(O)(CN2CCC[C@H](C3OCCO3)C2)CC1 (stereo partly drawn),-4%,0.37,–,–
O=C(CC1COc2ccccc2O1)NC1CC12CCOCC2 (stereo not drawn),2%,-0.33,–,–
O=C(N[C@H]1CCCC[C@H]1C(F)(F)F)C1=NN(CCO)C(=O)CC1,-3%,0.6,–,–
COc1ccc(C2=C[C@@H](c3cccc(OC)c3)n3ncc(C(=O)Nc4ccccc4)c3N2)cc1,6%,-0.59,–,–
O=C([C@@H]1CCC(=O)N1C1CCCC1)N1CCN(c2ccc(F)cc2)CC1,-11%,1.85,–,–
COc1ccc(Cl)cc1N(C)C(=O)c1c(C)oc2ncn(CC(C)C)c(=O)c12,-9%,1.57,–,–
Cc1ccc(CCC(=O)N2CCO[C@]3(CNCCOC3)C2)cc1C,-1%,0.08,–,–
CN(Cc1ccccc1N1CCOCC1)c1ccc(C(N)=O)cn1,-15%,1.51,–,–
CCc1cc(NC(=O)N2CCCC2)n(C)n1,-7%,1.08,–,–
Cc1csc(C2CCCN(CC(O)COc3ccccc3)C2)n1 (stereo not drawn),-1%,0.16,–,–
Cc1ccc2snc(C(=O)N3CC(F)CC3CO)c2c1 (stereo not drawn),-8%,1.5,–,–
CCNC(=O)C(C)NS(=O)(=O)N1CCC[C@H]1C(=O)OC(C)(C)C (stereo partly drawn),1%,-0.15,–,–
CN1CCC(N(Cc2cccnc2)Cc2ccco2)CC1,10%,-1.51,–,–
COCC1CCN(C(=O)CCCN2CCCCC2=O)CC1,9%,-1.13,–,–
Cc1cc(=O)c2sccc2n1Cc1nnc(C(C)C)s1,3%,-0.57,–,–
O=C(NCc1nnc2n1CCC2)c1cc(F)ccc1Br,-11%,1.2,–,–
FC(F)(F)c1ccc(-c2nc(CN3CCn4c(Br)cnc4C3)cs2)cc1,-3%,0.35,–,–
CC1=NS(=O)(=O)c2cccnc2N1C,-10%,1.09,–,–
COc1ccc(NC(=O)C2CCN(c3c(C#N)cnc4ccc(F)cc34)CC2)c(C)c1,0%,-0.03,–,–
